Reference: patent US7807641B2, “Methods and reagents for treating glucose metabolic disorders” (Curis, Inc., priority 1999, dated 2010)
Numbered stars: 1 amine (or outer) side, 2 acyl side, 3 side chain; on linkers, the order of the positions; unused ones are H or OH. Bridge positions count the residues as written; N and C are the ends. Square brackets hold non-standard residues; d marks the D form. Peptide text beside a SMILES is read from it. I, II: the chains in the order shown. Actinocin(9to1) = Cc1c2oc3c(C)ccc(C(=O)[*:1])c3nc-2c(C(=O)[*:2])c(N)c1=O; NMeV = CN[C@H](C(=O)O)C(C)C; Sar = CNCC(=O)O

Test system: E21 fetal islets
Assay: Glucose-stimulated insulin release (static insulin release, RIA) in cultured e21 fetal rat islets

| Compound | inhibition of the gain of function induced by PYY (insulin release) (200 L/ml PYY for 5 days, actinomycin D at 0.1 μg/ml for the last 16 hours) | insulin exocytosis in islets treated with actinomycin D (1 μM IBMX, PYY 5 days, actinomycin D 0.1 μg/ml last 16 hours) |
| --- | --- | --- |
| Cc1c2oc3c(C)ccc(C(=O)N[C@@H]4C(=O)N[C@H](C(C)C)C(=O)N5CCC[C@H]5C(=O)N(C)CC(=O)N(C)[C@@H](C(C)C)C(=O)O[C@@H]4C)c3nc-2c(C(=O)N[C@@H]2C(=O)N[C@H](C(C)C)C(=O)N3CCC[C@H]3C(=O)N(C)CC(=O)N(C)[C@@H](C(C)C)C(=O)O[C@@H]2C)c(N)c1=O [Actinomycin D, actinomycin D] (I: T[dV]P[Sar][NMeV] / II: T[dV]P[Sar][NMeV]; ester I:1-I:C, II:1-II:C; linker I:N-II:N via Actinocin(9to1)) | completely inhibit the gain of function induced by PYY |  |
| CC(C)Cn1c(=O)n(C)c(=O)c2[nH]cnc21 [IBMX] |  | can still induce insulin exocytosis |
